In the supplement of paper PMC4166925:
± gives the standard deviation of the averaged measurements. Over roughly 33,000 sequences, “E-score (dimensionless, -0.5 to 0.5)” has its median near -0.046; the highest 2% begin near 0.36. The list shows a part of the results.

test system: T1, SpTbr T-box DNA-binding domain (GST fusion); assay: PBM E-score of 8-mer (E-score (dimensionless, -0.5 to 0.5)); Tbr is Tbrain of the sea star Patiria miniata (Pm) or the sea urchin Strongylocentrotus purpuratus (Sp); higher = stronger binding preference; most listed sequences are background and not binding sites; details: the construct has about 5 more residues each side
T1 sequence: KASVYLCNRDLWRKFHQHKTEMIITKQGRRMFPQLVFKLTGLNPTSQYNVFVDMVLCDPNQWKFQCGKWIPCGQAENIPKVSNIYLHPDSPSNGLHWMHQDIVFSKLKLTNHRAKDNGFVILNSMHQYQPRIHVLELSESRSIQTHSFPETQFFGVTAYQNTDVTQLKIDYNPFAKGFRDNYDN
Method: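 Universal protein-binding microarray (Agilent AMADID 016060, 60-bp probes with a 35-bp variable region) incubated with 200 nM GST-fused Strongylocentrotus purpuratus Tbr T-box DNA-binding domain (residues 362-554) in PBS pH 7.5. Scored for every ungapped 8-mer (given with its reverse complement) as E-score (range -0.5 to 0.5; >0.45 counts as bound) and Z-score of median probe intensity. Two replicate arrays (datasets 1 and 2).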
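Note: protein at 200 nM in PBS on universal double-stranded arrays.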

Row | Sequence | PBM E-score of 8-mer
1 | GATGAACC | -0.244 ± 0.055
2 | ATAGTCCG | -0.0403 ± 0.065
3 | GATGGGCC | -0.188 ± 0.024
4 | AGTCATAG | 0.0432 ± 0.023
5 | TAAGAGAA | -0.241 ± 0.094
6 | TGAACACA | 0.136 ± 0.051
7 | GATGGCTA | -0.127 ± 0.081
8 | CTTTCGAA | 0.0618 ± 0.015
9 | ATAGGTAC | -0.178 ± 0.079
10 | AGACCATG | -0.0594 ± 0.025
11 | ACCTAGGG | 0.162 ± 0.088
12 | GTTAGAGA | 0.0842 ± 0.098
13 | AATTCCCA | -0.14 ± 0.032
14 | CTCTACTC | -0.0577 ± 0.076
15 | AAACTAGA | -0.184 ± 0.12
16 | AGAACTTA | -0.0369 ± 0.0036
17 | CTGCTAAA | 0.0425 ± 0.15
18 | GCGGGACA | -0.0855 ± 0.043
19 | AGTTACAT | -0.00121 ± 0.052
20 | CGTGGCGC | 0.194 ± 0.074
21 | AAACGTAA | -0.133 ± 0.015
22 | ATATCACA | 0.307 ± 0.028
23 | AGATGGTA | -0.0279 ± 0.063
24 | CACGGGTA | 0.0283 ± 0.014
25 | CAAGGGAC | 0.0013 ± 0.045

Row | Sequence | PBM E-score of 8-mer
26 | AGCGTCTG | -0.143 ± 0.055
27 | ACCCTTAG | 0.0897 ± 0.025
28 | TATTCAGA | -0.282 ± 0.053
29 | ATCGTTCC | -0.0546 ± 0.0048
30 | CAGTAAGG | -0.0533 ± 0.03
31 | CTTAGCGC | 0.265 ± 0.047
32 | AAACGAAT | 0.0397 ± 0.069
33 | AGAACGAC | -0.0201 ± 0.022
34 | ACCGTGCT | 0.0507 ± 0.043
35 | GGACCGCC | -0.155 ± 0.033
36 | CGCTCGAC | -0.0351 ± 0.11
37 | TCGGATCA | -0.03 ± 0.008
38 | CTCCTGAC | 0.0548 ± 0.024
39 | CAGGTATG | 0.0341 ± 0.0037
40 | AGTATTGG | -0.1127 ± 0.00064
41 | AAAAAGCA | 0.12 ± 0.011
42 | GAGTTCAC | 0.256 ± 0.053
43 | TACCAATA | -0.0646 ± 0.057
44 | AAAGGATG | -0.214 ± 0.059
45 | AAAGTCAC | 0.119 ± 0.0087
46 | CCACATAG | -0.0313 ± 0.00086
47 | TCACTACA | 0.173 ± 0.016
48 | CCCCCTAA | -0.263 ± 0.03
49 | GAGTCGGA | -0.276 ± 0.085
50 | GGTGCAAC | 0.176 ± 0.012

Row | Sequence | PBM E-score of 8-mer
51 | AGGACGCG | -0.054 ± 0.079
52 | CACGACCG | -0.0494 ± 0.098
53 | AGCTCGCG | 0.271 ± 0.033
54 | ACGCCGAG | 0.0691 ± 0.026
55 | AAAAGACG | -0.172 ± 0.028
56 | ACAAGTTA | 0.0857 ± 0.15
57 | ACGTCTGC | -0.129 ± 0.03
58 | CAGTAGAG | 0.0207 ± 0.018
59 | CTGGCAAG | -0.233 ± 0.014
60 | AGCTTATG | -0.273 ± 0.061
61 | ATTATCTC | 0.0263 ± 0.041
62 | CGGTTCGA | -0.0657 ± 0.06
63 | AGAGCCGG | -0.263 ± 0.065
64 | TAAGGAAA | -0.136 ± 0.076
65 | ATTGTTAC | 0.22 ± 0.017
66 | GGCTGGTA | -0.171 ± 0.037
67 | CCATCGGG | -0.0648 ± 0.033
68 | AGGTGCAG | 0.287 ± 0.055
69 | AGTTGTGC | 0.0504 ± 0.0086
70 | CCGATTCC | -0.307 ± 0.012
71 | ATACTGGC | -0.201 ± 0.025
72 | GAATTCTC | 0.0707 ± 0.0016
73 | AGAGCCCA | -0.2081 ± 0.0017
74 | GATCCACC | -0.0245 ± 0.0077
75 | AACGTGGT | 0.0744 ± 0.038

Row | Sequence | PBM E-score of 8-mer
76 | GAAAGCCC | -0.283 ± 0.0092
77 | ATGAAGAA | -0.0743 ± 0.087
78 | GCTCATAC | -0.0299 ± 0.01
79 | AGTCTATG | -0.251 ± 0.014
80 | ATCAAGCA | -0.0419 ± 0.014
81 | TATGACGA | -0.0832 ± 0.054
82 | CTGCGGTC | -0.0469 ± 0.00098
83 | CCAGTATA | -0.13 ± 0.036
84 | CCTTAAAA | -0.12 ± 0.064
85 | ATCCATAG | -0.212 ± 0.02
86 | GCGCGGAC | 0.242 ± 0.046
87 | GTAATTTA | -0.0191 ± 0.074
88 | CCCTGGTC | -0.0321 ± 0.028
89 | CCCAATGC | -0.275 ± 0.026
90 | ACCTGAAT | 0.0642 ± 0.047
91 | ACCAAAGG | -0.248 ± 0.024
92 | CGTTTTAA | -0.00155 ± 0.11
93 | CTAGATTC | -0.0153 ± 0.052
94 | CTAACTCA | -0.00571 ± 0.045
95 | ATCGAACA | -0.0848 ± 0.006
96 | CGGATGGC | -0.0926 ± 0.0036
97 | ACATTTTA | 0.0151 ± 0.0042
98 | GCGTTCGA | 0.0517 ± 0.025
99 | ATTCGGGC | -0.0997 ± 0.061
100 | CTACTCAC | 0.192 ± 0.02

Row | Sequence | PBM E-score of 8-mer
101 | ACTCCACA | 0.218 ± 0.034
102 | AACGGTTG | 0.152 ± 0.027
103 | AGACGGAA | -0.0561 ± 0.057
104 | ACGAATTA | -0.109 ± 0.043
105 | TCCCTAAA | -0.115 ± 0.054
106 | GAGTATAA | -0.0577 ± 0.057
107 | AAAGTGAA | -0.017 ± 0.029
108 | AAGTGACT | 0.0603 ± 0.012
109 | CCTGGTGA | 0.0525 ± 0.11
110 | CAATCTCC | 0.016 ± 0.1
111 | AACCCGAC | 0.164 ± 0.046
112 | GCCAGAGC | -0.321 ± 0.034
113 | AGCCCAAA | -0.319 ± 0.0085
114 | GGCGCAAA | 0.252 ± 0.016
115 | CCCGCCAA | 0.103 ± 0.024
116 | CGGGCGGC | -0.0823 ± 0.034
117 | ACAGCAGT | -0.0239 ± 0.063
118 | AAACTCAA | -0.00724 ± 0.011
119 | CGAAGCGA | 0.112 ± 0.051
120 | ATGTTTCC | -0.109 ± 0.048
121 | CGTGGGTC | 0.0464 ± 0.031
122 | AGAGGGAC | -0.00168 ± 0.0061
123 | CAGTCAGC | -0.137 ± 0.051
124 | CTTCAAAA | -0.1056 ± 0.00038
125 | AAAATGGA | -0.119 ± 0.091

Row | Sequence | PBM E-score of 8-mer
126 | ACTCAATA | 0.0176 ± 0.0082
127 | GAATCGAA | 0.0339 ± 0.045
128 | CATGTACG | 0.0634 ± 0.009
129 | GCTTTATA | -0.0384 ± 0.072
130 | GCAATAAC | -0.0468 ± 0.054
131 | GACCGACA | 0.0969 ± 0.039
132 | ATAGTATA | -0.0295 ± 0.11
133 | AATAGGAC | -0.367 ± 0.014
134 | AATCGTAC | -0.101 ± 0.12
135 | CAGCGTTC | 0.0186 ± 0.085
136 | AATGTATA | -0.211 ± 0.0044
137 | GCATGGAA | -0.242 ± 0.016
138 | ACGTGACA | 0.3127 ± 0.0018
139 | ACTGGACA | -0.138 ± 0.026
140 | GACCGAGC | -0.107 ± 0.042
141 | ACTACTCT | -0.225 ± 0.021
142 | ACACCGAA | 0.213 ± 0.0062
143 | AGCGTCTA | 0.0653 ± 0.039
144 | GTCCGTCA | 0.109 ± 0.0058
145 | AGAAACCT | -0.164 ± 0.0043
146 | AGCAGCAC | 0.145 ± 0.013
147 | TACAACTA | -0.178 ± 0.17
148 | ATGAAACA | -0.118 ± 0.0024
149 | AGGGGTCG | -0.0173 ± 0.0068
150 | CTGCTGAA | -0.114 ± 0.03

Row | Sequence | PBM E-score of 8-mer
151 | CTGTCGTC | 0.125 ± 0.045
152 | GACCAGCC | -0.0974 ± 0.05
153 | AACACTAT | 0.316 ± 0.049
154 | AGTGTCAC | 0.43943 ± 0.00026
155 | CCGTGCAA | -0.0607 ± 0.027
156 | AGAGTAAG | 0.0445 ± 0.054
157 | GGATGACC | 0.103 ± 0.0083
158 | AAGGCACT | -0.132 ± 0.022
159 | TGAGACAA | 0.1313 ± 0.0002
160 | ATGCGGTG | -0.234 ± 0.046
161 | GAACCATA | -0.137 ± 0.015
162 | CCTTGAAA | -0.0919 ± 0.011
163 | ATAAGCAA | -0.0776 ± 0.036
164 | TGAGTACA | 0.0977 ± 0.0054
165 | CCCTATGA | -0.08 ± 0.038
166 | CCATTGCG | -0.193 ± 0.085
167 | CTCATTAA | -0.0585 ± 0.042
168 | TCATTGGA | -0.0638 ± 0.031
169 | TGATGAAA | 0.136 ± 0.069
170 | GCAGGAAA | 0.0033 ± 0.0078
171 | CCGGTAGC | 0.0568 ± 0.039
172 | CTCAGTTA | -0.0462 ± 0.038
